The other results are listed elsewhere or left out. The full chains were built here from the parent and the listed change. Values near 0.05 are background.
B1: TEV protease; numbered along this chain (parent)
chain: MGESLFKGPRDYNPISSSICHLTNESDGHTTSLYGIGFGPFIITNKHLFRRNNGTLVVQSLHGVFKVKDTTTLQQHLVDGRDMIIIRMPKDFPPFPQKLKFREPQREERICLVTTNFQTKSMSSMVSDTSCTFPSGDGIFWKHWIQTKDGQCGSPLVSTRDGFIVGIHSASNFTNTNNYFTSVPKNFMELLTNQEAQQWVSGWRLNADSVLWGGHKVFMVKPEEPFQPVKEATQL

Variants of: B1
Experiment: raw area under fraction-flipped curve 0-4 h after induction (AUC4h, not background-subtracted), DNA-recorder readout of cleavage of the substrate (dimensionless); higher = more cleavage of the substrate by the protease variant
Conditions: temperature: 34 °C; time window: 0-4 h after rhamnose induction
Protocol: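 In vivo DNA recorder in E. coli TOP10(DE3) ΔrhaA at 34 °C. Each TEVp single-site mutant (parent TEVp 0) is paired with a single-site variant of the 7-mer TEVs (canonical ENLYFQ|S). The substrate sits between flexible linkers in a Bxb1-sfGFP-TEVs-SsrA fusion, so cleavage stabilises Bxb1 and speeds flipping of a recombination array, read by NGS. The value is the raw area under the fraction-flipped curve over 0-4 h after rhamnose induction (AUC4h), with ≥20 reads per time point. It is not background-subtracted; inactive controls average about 0.047.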
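Further: Bxb1 expression induced with 0.2% (w/v) L-rhamnose at OD600 near 0.5, cultures sampled hourly, flipped fraction per protease–substrate barcode pair counted by paired-end Illumina sequencing.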

Variant	area with substrate ENLAFQS	area with substrate ENLCFQS	area with substrate ENLDFQS	area with substrate ENLEFQS	area with substrate ENLFFQS	area with substrate ENLGFQS	area with substrate ENLHFQS	area with substrate ENLIFQS	area with substrate ENLKFQS	area with substrate ENLMFQS	area with substrate ENLNFQS	area with substrate ENLPFQS	area with substrate ENLQFQS	area with substrate ENLRFQS	area with substrate ENLSFQS	area with substrate ENLWFQS	area with substrate ENLLFQS	area with substrate ENLVFQS	area with substrate ENLTFQS
F41S	0.0531	0.0675	0.057	0.0499	0.0672	0.0502	0.0671	0.07	0.0715	0.0321	0.0618	0.0552	0.0655	0.0643	0.0691	0.0684			
P93Y	0.0715	0.0535			0.102				0.0436	0.0654		0.0637	0.0249	0.0803					
P93H	0.0505		0.061				0.0668		0.0893			0.0558		0.0748		0.0446	0.0729		
K90Q	0.0714		0.0705	0.0639	0.0878		0.0834		0.0801		0.0577	0.0752	0.0833		0.0793			0.0679	
K90Y	0.0724		0.0634		0.154				0.0957		0.0635				0.0588		0.069		
K90C	0.0449	0.086	0.0698	0.0682	0.0834	0.0757	0.0736	0.0754	0.0811	0.0643	0.0646	0.0763	0.0697		0.072			0.0774	
T71D	0.0608				0.0646			0.0761			0.0745	0.0636			0.0767		0.062	0.074	0.0758
T71Y	0.0647	0.0582		0.0661						0.0709	0.0632	0.0499		0.0543				0.053	
T71H	0.0526					0.0776		0.0806		0.0789		0.073	0.0544	0.0671	0.0573				
L73F	0.0647	0.0663	0.0633	0.0557	0.0609		0.0606		0.0664	0.056	0.0422	0.0563			0.0536	0.0525	0.0567	0.065	
R109F	0.067	0.0852		0.0559	0.0906			0.0915	0.0697		0.0674			0.0248	0.0909			0.0623	
I86Y	0.045							0.0602	0.0578							0.0484			
D69M	0.0383		0.06	0.0488	0.072	0.0582	0.0461		0.0743	0.0457	0.0664		0.0443	0.0712				0.0718	
F101T	0.0533	0.0484	0.0557	0.0607		0.058			0.074	0.0782	0.051	0.0385					0.0512		
I42M	0.0733	0.0814	0.0597	0.0686	0.0863		0.0725	0.0903	0.0719		0.0692			0.0691	0.0655	0.0663	0.0719		
I42T	0.0425		0.0533	0.0439			0.0348	0.0427	0.0622					0.022	0.0495				

Variant	area with substrate ENLAFQS	area with substrate ENLCFQS	area with substrate ENLDFQS	area with substrate ENLEFQS	area with substrate ENLFFQS	area with substrate ENLGFQS	area with substrate ENLHFQS	area with substrate ENLIFQS	area with substrate ENLKFQS	area with substrate ENLMFQS	area with substrate ENLNFQS	area with substrate ENLPFQS	area with substrate ENLQFQS	area with substrate ENLRFQS	area with substrate ENLSFQS	area with substrate ENLWFQS	area with substrate ENLLFQS	area with substrate ENLVFQS	area with substrate ENLTFQS
I42P	0.0446		0.0401	0.0331	0.0383		0.0336	0.0425	0.042		0.0427	0.0434	0.0526	0.0507	0.0485	0.0525	0.033	0.0543	
I42E	0.0366		0.0475	0.0567	0.0411				0.0531		0.0678	0.0434	0.0347	0.0449	0.0607	0.0459	0.0254		
K100A	0.0625	0.0891	0.0842				0.0673	0.0636			0.0543	0.0523					0.0594	0.0743	
V78M	0.0559	0.0733	0.055		0.068		0.0714	0.0688	0.0796	0.056	0.0691	0.034	0.0714	0.0683	0.0564		0.0703		
V78T	0.065		0.0506	0.0597	0.0646				0.0646	0.0717	0.0636			0.0627		0.059			
K68M	0.0543		0.0587		0.0835		0.0828	0.0844		0.0769		0.056		0.0757		0.0623	0.0781		
E108H	0.0663	0.0535	0.0631	0.0609	0.0609		0.0608	0.0587	0.0701		0.0572	0.0646		0.0655	0.0543	0.0659	0.0531	0.0584	
E108C	0.0523	0.0671	0.062	0.0343	0.0624	0.0605	0.0713	0.0812	0.0672		0.0621	0.0482	0.0664	0.0581	0.0567		0.0642	0.0664	
E108L	0.0647		0.098		0.0647			0.057	0.0486				0.0542				0.0696	0.0642	
M88K	0.0422	0.0629				0.0627	0.0592		0.0649					0.0632	0.0672				
G80F	0.0525		0.0648		0.093		0.0658	0.0801	0.0684			0.0503			0.0571				
D82E	0.0613	0.0847	0.0727	0.0673	0.09		0.0715	0.076	0.0641	0.0632	0.0526	0.0768				0.0551	0.0416		0.0279
E103F	0.0715	0.0616	0.0712	0.0695				0.0939				0.0728	0.0737	0.058			0.0853		
G63C	0.067	0.0524	0.0619	0.0471	0.0796	0.0724	0.0719		0.068		0.0563	0.0677	0.0794	0.0735		0.11	0.0865	0.0636	
G63V	0.0839	0.0668	0.0599	0.072	0.0788		0.0529	0.072	0.0685	0.0568	0.0614		0.0824		0.0659	0.0669			0.0815

From the supplement of paper PMC12217912
